Measurements as given in the supplement of paper PMC11417369.
± gives the standard deviation of the averaged measurements. The list shows a part of the results.

Test system: PfAP2-LT AP2 domain (GST-tagged)
Experiment: gcPBM binding intensity (ln(normalized median fluorescence intensity)); higher = stronger DNA binding
How it was run: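 The binding buffer was 1× PBS containing 1% milk, 0.2 mg/ml BSA, 0.5% salmon testes DNA and 0.03% Triton X-100. In it, GST-tagged P. falciparum DNA-binding domains expressed in E. coli were applied for 1 h to an Agilent 4 × 180k array of primer-extended double-stranded 36-bp intergenic genomic probes plus negative controls. Binding intensity, read with Alexa488 anti-GST antibody and a 488 nm scan, is the highest Masliner-normalised natural-log median intensity across replicate spots of either probe orientation.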

Row | Sequence | gcPBM binding intensity (ln)
1 | TATTTATAAAAAGATTGTACATTTTTTATTATTGTA [XGTACX_site6016] | 8.38 ± 0.59
2 | TCCTATAATAACGTCACACATTAAATTTAATAAATT [CACACA_site4506] | 8.56 ± 0.42
3 | AGTGCATACATGAATTGTACTTTAAAATAAATTCTA [XGTACX_site8156] | 8.59 ± 0.38
4 | AAAAAAAAAAAAAAAACACACATATATCTATAATAT [CACACA_site6665] | 8.8 ± 0.4
5 | CATTATTTATTTTAATGTACTTATTTTTAAATTGGT [XGTACX_site8038] | 8.53 ± 0.47
6 | TATACAAAATATTTTACACACACATATATATACATA [CACACA_site2616] | 9.33 ± 0.24
7 | AATTAAAATACAAATGTATGCATGTCTCATATAGAA [TGCATGCA_site822] | 8.78 ± 0.43
8 | TTACGAATTACATATTGTACATATGCACAATTTTAA [XGTACX_site6802] | 8.69 ± 0.35
9 | TACATAATTTAAAATTTTATAAGTTGTAATTCGTTT [XGTACX_negctrl_site308] | 8.48 ± 0.49
10 | AGAAATTATAAATACCTACACACTTATCAAAATAAA [CACACA_site2264] | 8.76 ± 0.5
11 | TAAGACATGATATATACACACCTTGTTTTAATTTTC [CACACA_site5282] | 8.86 ± 0.45
12 | TATATCTGTAAATGCACACATATGTGGATATACTTA [CACACA_site5013] | 9.05 ± 0.31
13 | GTTCATTCATTTTAATGTACAAATTTAACTTTTTCT [XGTACX_site680] | 8.56 ± 0.44
14 | TCTAATAATATATACACACACATATATATTTATATA [CACACA_site2032] | 9.06 ± 0.33
15 | TGCTACATTCTATGTACACACATATACATATATATA [CACACA_site893] | 8.96 ± 0.3
16 | TATAAATATAAATACACACACATATAGATTATAGAT [CACACA_site6429] | 9.5 ± 0.38
17 | GATAAAGTAAAAATATGTACATATATATTTTAAGTT [XGTACX_site6439] | 8.88 ± 0.56
18 | GCTACGTAAAAAATATGTACATATGAAATATTTTGC [XGTACX_site5111] | 8.86 ± 0.3
19 | TTATATATCTATAATACACACATAATAATATATTTA [CACACA_site7423] | 8.65 ± 0.34
20 | TTTCATTGGTTTATAAAATTATGAGATCTTAAAGAC [CACACA_negctrl_site1484] | 8.26 ± 0.4
21 | TCTGTAAAGTAATGGACACACAATATATCCATTTAT [CACACA_site1536] | 8.88 ± 0.39
22 | GAATAATATGGACATACACACATATACATACAGATA [CACACA_site5200] | 9.35 ± 0.42

Row | Sequence | gcPBM binding intensity (ln)
23 | ATATATATATATATATGTACATATATTTATATTTAT [XGTACX_site6179] | 9.43 ± 0.13
24 | ATGCATAAATTTTGAAGTACAAAAAAAAAAAATAAA [XGTACX_site7282] | 8.61 ± 0.52
25 | ATACATATATAAATACGTACATATATAATTATATAT [XGTACX_site8178] | 9.01 ± 0.41
26 | AAATGAGAAGAAATACGTACATATAATAAAATAATT [XGTACX_site4439] | 9.04 ± 0.46
27 | CATGTAATATTAAACACACACTCATATAACTCAATA [CACACA_site4212] | 9.13 ± 0.33
28 | CACATATACTTCTGTGCACACGAATATTTTTCTTCT [CACACA_site1408] | 9.33 ± 0.45
29 | AAAATATAATATAATGCACACATAAACAAAAAAAAA [CACACA_site8161] | 9.18 ± 0.59
30 | TTTTTTTTTTTTTTGGGTACATAATAATAACAAGTG [XGTACX_site1034] | 8.29 ± 0.31
31 | TTTTATTTAACTCATAATTTTTTAAAAAACAATTAT [XGTACX_negctrl_site19] | 8.3 ± 0.53
32 | CATACAGTATTATACTGTACCCATACAAAAAAATAT [XGTACX_site6130] | 8.83 ± 0.48
33 | AAATAAAAAAAATTTGCACACCTTCAAAGTAATATA [CACACA_site1583] | 8.77 ± 0.39
34 | TTTTTAATATTCTATGCATGCATCGCATATTTGGTT [TGCATGCA_site1004] | 8.98 ± 0.51
35 | CTTATTTAAGAGTATGAACACACATCATACACATAT [CACACA_site9205] | 9.07 ± 0.34
36 | TTAACATTATATGAAGGTACAGAAAAAAAAAAATTA [XGTACX_site8530] | 8.46 ± 0.54
37 | TTTCTTATAGATTTTAATCCTCTATCAAAAAAAGAA [GTGCAC_negctrl_site162] | 7.88 ± 0.38
38 | GTGTGCTTTTTACGAGTGCAAGTATTTTGGTGGTTA [GTGCAC_site9496] | 9.04 ± 0.47
39 | GTACACATATAATATACACACAACAAATATGCACAT [CACACA_site1010] | 9.5 ± 0.3
40 | TAATTTTTATTTATAATAATATATGACATATATCCA [XGTACX_negctrl_site359] | 8.52 ± 0.45
41 | GGAATAATATAAAACACACACATAAATATAAATATA [CACACA_site3376] | 9.45 ± 0.35
42 | TAATTTTTTTTTTTTTTTTTTTTTTTTTTTTTCCTT [CACACA_negctrl_site1095] | 8.11 ± 0.6
43 | TTAAGAATATCTACATGTACATACCAAAGAAATACA [XGTACX_site3125] | 8.71 ± 0.4
44 | TTTTATTCCTATTTATTTATATTTTTGTCTTATATC [CACACA_negctrl_site125] | 8.88 ± 0.54

Row | Sequence | gcPBM binding intensity (ln)
45 | ATGAACAAAATGTAATGTACGAATAATTATTCATAT [XGTACX_site4812] | 8.98 ± 0.43
46 | TATAGACAAACACATACATGCATACATACATACATA [TGCATGCA_site273] | 9.22 ± 0.33
47 | AAAAAAAAGTTCTACACACACAAAAAAATATTTTTT [CACACA_site2309] | 9.17 ± 0.38
48 | AATGACCATTTTTAAAATTACAAATACATACAACTG [TGCATGCA_negctrl_site420] | 8.56 ± 0.41
49 | AATGTCAATTTTAATAGTACACAAATATATATATAT [XGTACX_site521] | 8.98 ± 0.18
50 | AAGTATTATTATAAGACACACATGTATTTAAGTATA [CACACA_site4922] | 9.01 ± 0.5
51 | TTATAATAAGATTGTTGTACTTATATTCCTTCTATA [XGTACX_site3173] | 8.74 ± 0.47
52 | AATACATATTCAAAGGTGCAAAATAAAAATATACAT [GTGCAC_site9743] | 9.19 ± 0.46
53 | TAGTTATAAGAGTTACAAAGAATACCGGAAATATAG [CACACA_negctrl_site1829] | 8.84 ± 0.43
54 | TGTTTTGTATATATAGCATGCAGTAAGGGAAAAAAA [TGCATGCA_site652] | 8.76 ± 0.38
55 | TCGTTTCATATTTATCATGAGATAATCACACGAACA [TGCATGCA_negctrl_site497] | 8.7 ± 0.38
56 | CTCCATATGAAACACACACACAAATGAAAAAAATAT [CACACA_site3018] | 9.82 ± 0.4
57 | TTTAAAAAAATATATACACACATATATATATATATA [CACACA_site617] | 9.48 ± 0.25
58 | AATTAACAAAGACACACACACACACGCACAAAAAAA [CACACA_site6388] | 10.2
59 | ATAGAAATAAAATAAAATAAAAAAAAAATAATGAAA [CACACA_negctrl_site1565] | 8.64 ± 0.44
60 | ATATATAATAAATACACACACATGTATTTATAAATA [CACACA_site5135] | 9.12 ± 0.37
61 | TGAATTATAAATTATAGTACTTTATAATATGAACAT [XGTACX_site2317] | 8.46 ± 0.45
62 | TCTGTGCACGCATGAAGTACAAAAAAGGTTTCCAGT [XGTACX_site5049] | 9.11 ± 0.47
63 | TATATTTTTTTAATATGTACATATATATATAAAACA [XGTACX_site2171] | 8.3 ± 0.44
64 | CTATATACTAAATGCACACTTATATATTTATATATA [CACACA_site2454] | 8.77 ± 0.42
65 | CATATATATATATATTGTACAAGATTGTTTTTTTAT [XGTACX_site3913] | 8.79 ± 0.3
66 | ATGATCATAAGACACACACACAAAAAAAAAAAAAAA [CACACA_site6936] | 9.38 ± 0.64

Row | Sequence | gcPBM binding intensity (ln)
67 | ATTTAAATAATATGTACACACATTTAAAAAATTATA [CACACA_site2816] | 8.76 ± 0.44
68 | TAAGAAAAAGGCACACGTACATAATTCAAAATAAAT [XGTACX_site982] | 9.12 ± 0.5
69 | ATATATATGTATGTATGTACTTATTTATTTATTTAT [XGTACX_site7740] | 8.81 ± 0.45
70 | CCAATGAGGATATATACACACATACATTAAAAAAAT [CACACA_site5090] | 9.17 ± 0.48
71 | TTTTTTTTCACACATTGTACTTTTTTATAAAATATA [XGTACX_site4351] | 8.71 ± 0.42
72 | AATATATAGGTATTTACACACAATGTGAGATCTATA [CACACA_site3407] | 9.03 ± 0.31
73 | ATTTATGAAAAGTAAAGTACACACAGGAAAAAAAAA [XGTACX_site3564] | 9.1 ± 0.54
74 | GTCAACTTGTGATAAGTGCATATATATAATAAAATG | 8.86 ± 0.44
75 | AAAAAAATATAATATTTGAATAAATATAATAATATG [XGTACX_negctrl_site477] | 8.4 ± 0.57
76 | CGAAATAAATCTTATGCACACAAATAATTAATTAAA [CACACA_site8491] | 8.88 ± 0.4
77 | AATTATCAAAGTCTATACATACATACATACATACAT [GTGCAC_negctrl_site243] | 9.09 ± 0.33
78 | TAATTATAATAAAAAGGTACAGAAAAGTTATACTCA [XGTACX_site6111] | 8.64 ± 0.52
79 | GTTATAACTCAAATATGTACATATTATAAAACATAT [XGTACX_site6693] | 8.77 ± 0.3
80 | TTATAGAACTATATTGCACACATAATATATATATAT [CACACA_site9042] | 9.07 ± 0.35
81 | TATAAAAATAAGCACACACACAAATATATATTTATT [CACACA_site922] | 9.71 ± 0.2
82 | AAAAAAAAAAAAAAAGGTACACAAATACGTCCTGCA [XGTACX_site3354] | 8.79 ± 0.42
83 | TATACATATTTACAAGTGCATAATATTTTACAAAAA | 8.54 ± 0.39
84 | ATAAAATAAATAAATATAAATATATATATATATATA [TGCATGCA_negctrl_site358] | 9.11 ± 0.19
85 | CACTCTTAAAATAAGGTGCACTATATAACGTGATTA [GTGCAC_site9422] | 8.71 ± 0.4
86 | AAAAGAAAAGAGAGGAGTACAAAATATAATTATCTA [XGTACX_site5172] | 8.76 ± 0.77
87 | AAAAAAAAAAAAAGAACACACACAGTGCACATTCGG [CACACA_site8163] | 9.18 ± 0.46
88 | TGTATATATTAATGTACACACATGCGTATGTTCGTT [CACACA_site3583] | 9.33 ± 0.38
